Measured values reported in the BET-seq Pho4 binding data (Le et al. 2018).
This is one part of the list. These are noisy estimates, calculated here from bound and input reads.

Target: T1, Pho4 (S. cerevisiae) (UniProt P07270)
T1 sequence: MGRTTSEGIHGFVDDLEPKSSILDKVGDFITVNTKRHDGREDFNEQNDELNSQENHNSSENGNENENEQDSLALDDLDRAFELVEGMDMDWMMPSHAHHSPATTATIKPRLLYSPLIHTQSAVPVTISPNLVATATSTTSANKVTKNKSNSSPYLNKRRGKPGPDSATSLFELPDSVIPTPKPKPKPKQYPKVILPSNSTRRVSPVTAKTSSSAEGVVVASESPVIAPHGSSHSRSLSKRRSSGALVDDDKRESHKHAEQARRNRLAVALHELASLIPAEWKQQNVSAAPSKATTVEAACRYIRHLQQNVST
Assay: relative binding free energy (BET-seq); higher = weaker binding
Settings: reference: library average

Sequence | relative binding free energy
AGGGGCACGTGGCCAT | -0.21 kcal/mol
AGTTTCACGTGGCGCG | 0.19 kcal/mol
GAGGGCACGTGTTTCA | 0.04 kcal/mol
ACTGTCACGTGTCTGT | 0.13 kcal/mol
GCGGGCACGTGAGATT | 0.24 kcal/mol
AGGATCACGTGTATTG | 0.02 kcal/mol
GTTAACACGTGTGTCA | 0.01 kcal/mol
GTGGTCACGTGTCGGT | 0.27 kcal/mol
TGTTACACGTGATGCC | 0.27 kcal/mol
TAAAGCACGTGGAGAG | 0.04 kcal/mol
TTATTCACGTGGTCAA | 0.13 kcal/mol
GTAGTCACGTGGGCGT | 0.12 kcal/mol
TGTGCCACGTGTTGGA | -0.12 kcal/mol
TTGGACACGTGTGTTG | 0.13 kcal/mol
ATATTCACGTGGGGTA | 0.12 kcal/mol
ATGGACACGTGACAGG | 0.15 kcal/mol
TGCGTCACGTGATTCT | 0.28 kcal/mol
GCGTGCACGTGGGGTC | -0.24 kcal/mol
AGAGTCACGTGGTACG | 0.02 kcal/mol
TGGAACACGTGTTCGT | 0.12 kcal/mol
GAGTTCACGTGATGGA | 0.42 kcal/mol
GGTTTCACGTGCAGGC | 0.39 kcal/mol
GGGTCCACGTGAGGTC | 0.48 kcal/mol

Sequence | relative binding free energy
GTGTTCACGTGTCGAT | 0.23 kcal/mol
TTCTGCACGTGGGCAG | -0.21 kcal/mol
GATGACACGTGGTGCG | 0.01 kcal/mol
TTTTGCACGTGGGAAA | 0.08 kcal/mol
AGGTCCACGTGAATGT | 0.21 kcal/mol
TGGATCACGTGGTGTG | 0.03 kcal/mol
GATTGCACGTGTGGAA | 0.1 kcal/mol
GTCAGCACGTGGGAGA | -0.1 kcal/mol
TTTTGCACGTGGATTA | 0.07 kcal/mol
TGGGACACGTGGTTTC | 0.12 kcal/mol
TATAACACGTGTCTGT | 0.04 kcal/mol
TAAAGCACGTGGTCTG | -0.2 kcal/mol
GATATCACGTGTTGGC | 0.34 kcal/mol
TTAAGCACGTGGCGTA | -0.26 kcal/mol
TGGGGCACGTGGCATA | -0.25 kcal/mol
CGGTTCACGTGGCAAG | 0.24 kcal/mol
CGAGGCACGTGTTAGT | -0.09 kcal/mol
ATCATCACGTGTTAGG | 0.23 kcal/mol
TTAGACACGTGAGGTG | 0.25 kcal/mol
CATTGCACGTGAAGTG | 0.1 kcal/mol
CGTGACACGTGTTAGG | 0.02 kcal/mol
GCTGGCACGTGGGAAG | -0.22 kcal/mol
TAGAGCACGTGGGATA | -0.14 kcal/mol

Sequence | relative binding free energy
TTTTCCACGTGATGGG | 0.17 kcal/mol
GTGTTCACGTGGTCGG | 0.33 kcal/mol
GCGGGCACGTGCGCGG | -0.28 kcal/mol
TAGAGCACGTGCAAGT | 0.05 kcal/mol
TTTCTCACGTGTTACG | 0.42 kcal/mol
TACGACACGTGTATGT | 0.09 kcal/mol
TGGAACACGTGGAATG | 0.02 kcal/mol
AGGGACACGTGATGGG | 0.16 kcal/mol
TTCAGCACGTGAGGGG | 0.06 kcal/mol
CAAGGCACGTGGTTGG | -0.07 kcal/mol
TTCGACACGTGGCGGT | -0.03 kcal/mol
TGGCTCACGTGTATGG | 0.16 kcal/mol
GGTGACACGTGTAGCG | 0.06 kcal/mol
ATGTGCACGTGAGATC | 0.36 kcal/mol
TTAAGCACGTGCTGGG | -0.21 kcal/mol
GTGTCCACGTGTGGAA | 0.11 kcal/mol
ATGGGCACGTGAGCTA | 0.1 kcal/mol
AGGCGCACGTGATGAG | 0.15 kcal/mol
TACTACACGTGGGTGT | -0.05 kcal/mol
GTGGTCACGTGCCGGT | 0.14 kcal/mol
TTTTCCACGTGTTGAT | 0.04 kcal/mol
TAAAGCACGTGAGCGG | 0.11 kcal/mol
CGCGTCACGTGCGTGG | -0.1 kcal/mol

Sequence | relative binding free energy
CATTACACGTGGGTTG | -0.08 kcal/mol
GGATACACGTGGGTGA | 0.01 kcal/mol
ACTGGCACGTGGGTGA | -0.13 kcal/mol
GTATACACGTGATTGA | 0.25 kcal/mol
AGGGACACGTGGGCGC | -0.12 kcal/mol
ATTGGCACGTGCTATT | -0.26 kcal/mol
AGTGACACGTGATGGA | 0.04 kcal/mol
ACGGTCACGTGGTGGA | 0.08 kcal/mol
TTTCGCACGTGGTCTG | -0.18 kcal/mol
GGGGGCACGTGGTAAC | -0.28 kcal/mol
TAGGGCACGTGTAATG | -0.07 kcal/mol
ATTTTCACGTGGAGGC | 0.31 kcal/mol
TCTGGCACGTGGCGGT | -0.24 kcal/mol
ATTTACACGTGGTGGC | 0.22 kcal/mol
TTGCGCACGTGGCTAG | -0.09 kcal/mol
TGGGCCACGTGAAATT | 0.33 kcal/mol
CTTAGCACGTGAGATT | 0.25 kcal/mol
TTGAACACGTGGTTGG | -0.05 kcal/mol
GTTAGCACGTGAGCTT | 0.21 kcal/mol
GGAGTCACGTGCGTAG | -0.01 kcal/mol
GTAATCACGTGAGAGT | 0.37 kcal/mol
ATTCACACGTGGTCGG | 0.13 kcal/mol
GGTTTCACGTGAGCGT | 0.36 kcal/mol

Sequence | relative binding free energy
GTTTCCACGTGGGGAG | -0.03 kcal/mol
CGTTGCACGTGAAGTG | 0.24 kcal/mol
AGATACACGTGTATGT | -0.1 kcal/mol
AATTGCACGTGTCGTG | 0.01 kcal/mol
AGTGCCACGTGTAAGT | -0.11 kcal/mol
CTAGGCACGTGTTGAT | -0.14 kcal/mol
TTGATCACGTGTGCTT | 0.06 kcal/mol
AGTGGCACGTGAGTGA | 0.14 kcal/mol
GTGTGCACGTGTTTGA | 0 kcal/mol
TTTGTCACGTGCTGGC | 0.17 kcal/mol
ATTTTCACGTGTCTGA | 0.29 kcal/mol
TCGGTCACGTGGATGG | 0.01 kcal/mol
GGGGGCACGTGATTCT | 0.01 kcal/mol
CCGGGCACGTGAGCGG | 0.1 kcal/mol
CGTTTCACGTGTGGGT | 0.33 kcal/mol
GGTGCCACGTGCTGTG | -0.06 kcal/mol
GGGGTCACGTGTAATA | 0.22 kcal/mol
GTTTACACGTGCGGGA | 0.09 kcal/mol
TTTTCCACGTGGGCGG | -0.01 kcal/mol
AGTATCACGTGGTCGT | -0.07 kcal/mol
TACGGCACGTGTATGG | -0.02 kcal/mol
CTGAGCACGTGGTATG | -0.09 kcal/mol
TTTCGCACGTGTGGGT | 0.04 kcal/mol
